Data on 91 molecules can be found in publication PMC4336329 (PLoS ONE, 2015).

Structures are written as SMILES. About 14,000 (4.5%) of roughly 310,000 compounds showed an effect of 50% or more. Effects have a minus sign here. Some of the results follow.
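Note: peak tail current of the secondary pulse compared with the same well before compound.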

human ether-à-go-go-related gene (hERG) potassium channel, sequence (Q12809 whole entry, looked up): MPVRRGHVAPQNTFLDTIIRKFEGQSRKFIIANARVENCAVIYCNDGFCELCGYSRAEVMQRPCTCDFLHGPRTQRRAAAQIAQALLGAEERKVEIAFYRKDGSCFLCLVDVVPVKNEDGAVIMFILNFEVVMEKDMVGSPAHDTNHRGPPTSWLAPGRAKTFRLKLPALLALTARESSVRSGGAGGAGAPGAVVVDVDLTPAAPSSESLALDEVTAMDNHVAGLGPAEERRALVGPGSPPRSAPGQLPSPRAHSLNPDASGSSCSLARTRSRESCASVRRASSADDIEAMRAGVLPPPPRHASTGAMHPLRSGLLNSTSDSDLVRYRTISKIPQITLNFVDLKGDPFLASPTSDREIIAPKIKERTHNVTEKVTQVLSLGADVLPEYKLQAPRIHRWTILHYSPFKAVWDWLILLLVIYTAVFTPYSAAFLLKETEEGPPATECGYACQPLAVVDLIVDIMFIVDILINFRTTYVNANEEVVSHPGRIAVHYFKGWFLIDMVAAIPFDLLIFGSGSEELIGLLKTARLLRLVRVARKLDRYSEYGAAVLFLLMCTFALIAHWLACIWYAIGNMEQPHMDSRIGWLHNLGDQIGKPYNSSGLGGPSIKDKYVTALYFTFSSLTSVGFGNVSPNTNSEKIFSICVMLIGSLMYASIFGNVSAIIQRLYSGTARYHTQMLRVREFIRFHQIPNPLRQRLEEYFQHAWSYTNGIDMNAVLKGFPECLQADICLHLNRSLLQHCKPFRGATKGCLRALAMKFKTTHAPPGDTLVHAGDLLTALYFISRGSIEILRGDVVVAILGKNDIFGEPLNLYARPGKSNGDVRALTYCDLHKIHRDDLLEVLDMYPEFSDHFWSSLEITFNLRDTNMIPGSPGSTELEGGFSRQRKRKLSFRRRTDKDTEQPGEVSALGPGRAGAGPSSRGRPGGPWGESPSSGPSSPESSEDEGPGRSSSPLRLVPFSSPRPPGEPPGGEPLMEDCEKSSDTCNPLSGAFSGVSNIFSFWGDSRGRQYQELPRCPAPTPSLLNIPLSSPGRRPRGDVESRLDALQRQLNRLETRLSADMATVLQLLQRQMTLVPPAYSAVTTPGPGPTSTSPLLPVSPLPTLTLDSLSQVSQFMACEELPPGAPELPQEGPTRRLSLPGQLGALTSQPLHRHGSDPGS

The experiment addresses human ether-à-go-go-related gene (hERG) potassium channel (human, UniProt Q12809). Briefly: primary screen, population patch clamp on CHO cells stably expressing hERG.
In the case of `O=C(NCC1CCCO1)C1CCCN1C(=O)Nc1ccc(Cl)cc1` (stereo not shown), the “hERG current change (%, negative = inhibition) at 10uM” value turned out to be 41.4%.
With `CCC(NC(=O)c1ccccc1NC(=O)c1ccccc1)C(=O)OC` (stereo not shown), the “hERG current change (%, negative = inhibition) at 10uM” value was 11.3%.
Then `CC(Sc1nc2c(N)ncnc2n1CCOc1ccccc1)C(=O)O` (stereo not shown), with 19.1%.
On to `COCCNC(=O)c1nn2c(C(F)(F)F)cc(-c3ccccc3)nc2c1Cl`, for which the “hERG current change (%, negative = inhibition) at 10uM” value worked out at 10.2%.
Turning to `CC(NC(=O)Nc1ccccc1)C(c1ccccc1)N1CCOCC1` (stereo not shown), the “hERG current change (%, negative = inhibition) at 10uM” value worked out at 22.8%.
Then `O=C(Nc1ccccc1)c1ccccc1OCc1ccc(S(=O)(=O)N2CCOCC2)cc1`, with 24.2%; and `CCOC(=O)N1CCC(NC(=O)c2cc(C(=O)NCc3ccc(F)cc3)ccc2CO)CC1`, with -0.533%; and `CCN(CC)S(=O)(=O)c1ccc(OC)c(NC(=O)CSc2cc(Cl)ccc2Cl)c1`, with -2.76%.
`Cc1ccc(NC(=S)N2CCC(N(C)CC3CCCO3)CC2)cc1C` (stereo not shown): the “hERG current change (%, negative = inhibition) at 10uM” value is reported as -6.3%.
In the case of `Cc1cc2cc(CNC(=S)NCc3ccccc3)ccc2n1C`, the “hERG current change (%, negative = inhibition) at 10uM” value was determined as 28.4%.
Consider `Brc1cccc2sc(N3CCCC3)nc12`, for which the “hERG current change (%, negative = inhibition) at 10uM” value is -3.23%.
`CN(C)C(=O)c1cc(C(=O)c2ccc(F)cc2C(F)(F)F)c[nH]1`: the “hERG current change (%, negative = inhibition) at 10uM” value was 7.24%.
Then `COc1ccc(CC(=O)Nc2ccc(-c3cn4ccccc4n3)cc2)cc1`, with -7.85%; and `O=C(c1ccco1)C12CN3CN(CN(C3)C1)C2`, with 3.62%.
Take `Nc1nonc1-n1nnc(C(=O)N/N=C/c2cc(Br)cs2)c1-c1ccccc1`: the “hERG current change (%, negative = inhibition) at 10uM” value is 20.8%.
In the case of `O=C(CCn1cnc2ccccc2c1=O)Nc1ccc2c(c1)OCCO2`, the “hERG current change (%, negative = inhibition) at 10uM” value is on record as 15.1%.
In the case of `Cc1ccc(-c2ccc(CCC(=O)O)n2NC(N)=S)cc1`, the “hERG current change (%, negative = inhibition) at 10uM” value was -1.9%.
For `O=C(O)Cc1ccc2ocnc2c1` the value was 12%; for `O=c1c2cc(F)ccc2sn1-c1ccc(F)cc1`, 12%; for `COc1ccc(S(=O)(=O)N2CCCCCC2)cc1N`, -11.5%.
Regarding `Cc1ccc(Cc2cc(-c3ccc(C)cc3)n[nH]c2=O)cc1`, the “hERG current change (%, negative = inhibition) at 10uM” value was 8.58%.
Consider `O=C1C2CCCCN2C(=O)N1CCCCN1CCN(c2ccc([N+](=O)[O-])cc2)CC1` (stereo not shown), for which the “hERG current change (%, negative = inhibition) at 10uM” value is recorded as -75.8%.
Then `CCn1c(CNc2ccccc2Cl)nnc1SCCN1CCCCC1`, with -36.6%; and `COC(=O)c1cccc(NC(=O)c2ccco2)c1`, with 4.02%.
For `O=C(Nc1ccccc1)C(=O)Nc1ccccn1`, the “hERG current change (%, negative = inhibition) at 10uM” value came to 3.99%.
As to `COCCCn1c(=O)c2sccc2n2c(CCCC(=O)NCc3ccccc3OC)nnc12`, the “hERG current change (%, negative = inhibition) at 10uM” value is given as -19.9%.
Consider `COc1ccc(Cl)cc1C(=O)NCC#N`, for which the “hERG current change (%, negative = inhibition) at 10uM” value is 12.1%.
Take `COc1ccc(NC(=O)COc2cccc(C(F)(F)F)c2)cn1`: the “hERG current change (%, negative = inhibition) at 10uM” value is given as 6.7%.
Then `Cc1cc(N)n(Cc2cccs2)n1`, with -2.95%; and `CCOC(=O)c1sc(NC(=O)C2CC2)nc1C`, with -1.21%.
Then `CCOC(=O)c1ccc(NC(=O)Nc2ccccn2)cc1`, with 17.3%.
On to `COc1ccc(OC)c(NC(=O)c2nnn(CCc3ccccc3)c2N)c1`, for which the “hERG current change (%, negative = inhibition) at 10uM” value was found to be 7.83%.
For `O=C(N/N=C/c1ccccn1)c1ccc(Br)o1` the value was 0.268%.
For `COC(=O)CCC(=O)c1oc2ccc(Cl)cc2c1NC(=O)CCCN1C(=O)c2ccccc2C1=O`, the “hERG current change (%, negative = inhibition) at 10uM” value turned out to be 1.89%.
Turning to `CC(=O)Nc1ccc(S(=O)(=O)NCCc2c[nH]c3ccc(C)cc23)cc1`, the “hERG current change (%, negative = inhibition) at 10uM” value is 26.2%.
As for `O=c1c2cnn(-c3ccc(F)cc3)c2ncn1Cc1cccnc1`, the “hERG current change (%, negative = inhibition) at 10uM” value is reported as -1.94%.
Consider `CCc1nnc(/N=C/c2c(O)n(-c3ccc(Cl)cn3)c(=O)c3ccccc23)s1`, for which the “hERG current change (%, negative = inhibition) at 10uM” value is reported as -7.69%.
As to `O=C(NC1CCN(S(=O)(=O)c2ccc(F)cc2)CC1)c1ccccc1`, the “hERG current change (%, negative = inhibition) at 10uM” value was determined as 7.65%.
On to `O=C(CSc1ncccn1)Nc1ccc(S(=O)(=O)N2CCCCC2)cc1`, for which the “hERG current change (%, negative = inhibition) at 10uM” value is -12.9%.
In the case of `COc1cccc2c(SCC(=O)N/N=C/c3ccc(O)c(O)c3)cc(C)nc12`, the “hERG current change (%, negative = inhibition) at 10uM” value is recorded as 18.3%.
For `COc1ccc(C(=O)OCn2nnc3ccccc3c2=O)cc1OC`, the “hERG current change (%, negative = inhibition) at 10uM” value is reported as 8.71%.
Turning to `Nc1nnc(SCC(=O)NC2CCCCC2)s1`, the “hERG current change (%, negative = inhibition) at 10uM” value is listed as 7.32%.
Then `COc1cccc(Cn2cnc3c(NS(=O)(=O)c4ccc(Cl)cc4Cl)c(C)c(C)cc32)c1`, with 5.02%; and `CCC(=O)Nc1c(C(=O)N2CCN(c3ccccn3)CC2)cnn1-c1ccc(Cl)cc1`, with -17.3%; and `CCCC(=O)Nc1ccc(C(=O)NCc2ccccn2)cc1`, with 14.2%.
For `CC(C)OCCCNC(=O)c1ccc(N(C)S(C)(=O)=O)cc1` the value was 13.3%.
For `COc1ccc(N2C(=O)C(CN3CCCCC3)C2c2ccccc2)cc1` (stereo not shown) the value was -12%; for `COc1ccccc1-c1noc(CCCC(=O)NC2CCCCC2)n1`, 3.66%; for `COc1ccccc1CN1CC(C(=O)NCc2cccc(C)n2)CCC1=O` (stereo not shown), 14%.
Consider `Cc1ccc(C(=O)OCC(=O)c2c(N)n(C)c(=O)n(C)c2=O)cc1S(=O)(=O)N1CCCCC1`, for which the “hERG current change (%, negative = inhibition) at 10uM” value is recorded as -21.7%.
Then `Cc1cc2cc(CN(CC3CCCO3)C(=S)NCc3ccco3)c(=O)[nH]c2cc1C` (stereo not shown), with -9.05%; and `CC(CC(=O)O)Nc1ccccc1O` (stereo not shown), with 9.04%.
Consider `CC(Sc1nnc(Cn2c(=O)sc3ccccc32)n1C)c1ccccc1` (stereo not shown), for which the “hERG current change (%, negative = inhibition) at 10uM” value was -23.9%.
Regarding `O=C(Cn1ncc(Cl)c(Cl)c1=O)Nc1ccc2c(c1)OCO2`, the “hERG current change (%, negative = inhibition) at 10uM” value is recorded as 0.75%.
Consider `O=c1[nH][nH]c(-c2ccccc2O)c1C(C[N+](=O)[O-])c1ccccc1` (stereo not shown), for which the “hERG current change (%, negative = inhibition) at 10uM” value is 20.9%.
With `O=C(CN1CCN(S(=O)(=O)c2ccc(Br)s2)CC1)N1CCCCC1`, the “hERG current change (%, negative = inhibition) at 10uM” value was -23.3%.
In the case of `CC(=O)Nc1ccc(S(=O)(=O)N(C)CC(=O)N/N=C/c2ccncc2)cc1`, the “hERG current change (%, negative = inhibition) at 10uM” value turned out to be 22.3%.
As for `Cc1ccc2nc(SC(C)C(=O)NCc3ccc4c(c3)OCO4)[nH]c2c1` (stereo not shown), the “hERG current change (%, negative = inhibition) at 10uM” value is -7.47%.
For `CCOC(=O)C1(Cc2ccccc2)CCCN(CCO)C1` (stereo not shown) the value was 6.18%.
For `O=C(c1ccco1)[C@@H]1[C@@H]2C(=O)N(c3ccc(F)cc3)C(=O)[C@@H]2[C@H]2C=Cc3ccccc3N21`, the “hERG current change (%, negative = inhibition) at 10uM” value was -5.52%.
For `O=C(Nc1ccc(F)cc1)c1nc(S(=O)(=O)Cc2ccccc2)ncc1Cl`, the “hERG current change (%, negative = inhibition) at 10uM” value is on record as 22.2%.
Turning to `CC(=O)Nc1cc2c3c(c1)CC(=O)N3CCC2`, the “hERG current change (%, negative = inhibition) at 10uM” value turned out to be 8.56%.
Then `Cc1ccc(C(C)C)c(OCc2n[nH]c(=S)o2)c1`, with 14.5%.
Take `NC(=O)c1nnsc1Sc1c(C(N)=O)nnn1-c1cccc(N)c1`: the “hERG current change (%, negative = inhibition) at 10uM” value came to 13.2%.
For `CN(C)CCCNC(NC(=O)c1cccs1)C(Cl)(Cl)Cl` (stereo not shown) the value was -17.5%; for `O=C(NCc1ccc(Cl)cc1)C(=O)NCC1OCCCN1S(=O)(=O)c1cccs1` (stereo not shown), -14.3%; for `COCCN(CCOC)C(=O)C1CCCN(S(=O)(=O)c2ccc(NC(=O)OC)cc2)C1` (stereo not shown), -1.73%.
For `COc1ccc(CN2C(=O)c3ccccc3C2C(=O)NCc2cccnc2)c(OC)c1` (stereo not shown), the “hERG current change (%, negative = inhibition) at 10uM” value is reported as 3.3%.
Then `Cc1cc(C(=O)N/N=C/c2ccc(C)o2)c2ccccc2n1`, with -10.8%; and `S=C(NCc1ccco1)NCC(c1ccco1)N1CCCCC1` (stereo not shown), with -28.1%; and `COc1ccc(-c2nc(CN3CCCCC3c3nccn3C)c(C)o2)c(C)c1C` (stereo not shown), with -64.9%.
Then `O=C(Nc1ccccc1Cl)c1ccc(Cl)cc1Cl`, with 10.5%; and `COc1ccc(NS(=O)(=O)c2ccc(N3CCCC3)c(NC(=S)Nc3ccc(SC(F)F)cc3)c2)cc1`, with 17.7%.
With `O=C(O)CCCC(=O)Nc1ccccc1C(=O)N1CCCC1`, the “hERG current change (%, negative = inhibition) at 10uM” value is recorded as -3.58%.
As to `C=C(C)C1CCC(C)=C1CC(C)(C)/C=N\n1cnnc1` (stereo not shown), the “hERG current change (%, negative = inhibition) at 10uM” value was 29.3%.
As to `CCN(c1ccc(OC)cc1)S(=O)(=O)N1CCCC(C(=O)NCc2ccccc2Br)C1` (stereo not shown), the “hERG current change (%, negative = inhibition) at 10uM” value is -24.5%.
For `O=C(NNC(=O)c1ccccc1O)c1ccc(NS(=O)(=O)c2ccc(F)c(F)c2)cc1` the value was 4.73%.
As to `CCOc1ccccc1NC(=O)COc1coc(CN2CCc3ccccc3C2)cc1=O`, the “hERG current change (%, negative = inhibition) at 10uM” value is listed as -23.6%.
For `Nc1[nH]ncc1-c1ccccc1`, the “hERG current change (%, negative = inhibition) at 10uM” value worked out at 0.435%.
As for `CC(=O)N(c1nc(/C=C\C(=O)O)cs1)c1ccccc1F`, the “hERG current change (%, negative = inhibition) at 10uM” value was found to be 5.24%.
For `Cn1c(C(=O)OC(C(=O)NCc2ccco2)c2ccncc2)cc2sccc21` (stereo not shown), the “hERG current change (%, negative = inhibition) at 10uM” value was -43.5%.
Then `COc1ccc(S(=O)(=O)N2c3ccccc3OCC2CC(=O)O)cc1` (stereo not shown), with 9.11%.
With `CCOC(=O)N1CCC(NCCNC(=O)c2ccccc2Cl)CC1`, the “hERG current change (%, negative = inhibition) at 10uM” value is listed as 8.65%.
For `Cc1ccc(C)c(S(=O)(=O)N2CCN(C(=O)CCCc3c[nH]c4ccccc34)CC2)c1` the value was -7.19%; for `COc1cc(CNCCCN2CCOCC2)cc(Cl)c1OCC(=O)NC(C)(C)C.Cl`, 10.3%; for `CCCCOc1ccc(CN=C(N)N)cc1Cl`, -2.43%.
Regarding `COc1ccc(C(=O)Nc2cc(C)on2)c(OC)c1`, the “hERG current change (%, negative = inhibition) at 10uM” value is 15.2%.
Turning to `O=C(CCn1c(=O)oc2ccccc21)Nc1cccc(Br)c1`, the “hERG current change (%, negative = inhibition) at 10uM” value came out at 18.1%.
`O=C(NCCCN1CCCCC1)C1CC(=O)N(CCc2ccccc2)C1` (stereo not shown): the “hERG current change (%, negative = inhibition) at 10uM” value was 12.3%.
For `O=C(NC1(C(F)(F)F)NC(=O)N(c2ccc(F)cc2)C1=O)c1cccs1` (stereo not shown), the “hERG current change (%, negative = inhibition) at 10uM” value is reported as -10.3%.
Take `O=C(Nc1nnc(S(=O)(=O)Cc2ccc(F)cc2)s1)c1ccccc1F`: the “hERG current change (%, negative = inhibition) at 10uM” value was determined as 9.55%.
